From article PMC4336329 (PLoS ONE, 2015)
About 14,000 (4.5%) of roughly 310,000 compounds showed an effect of 50% or more. Effects have a minus sign here. Some of the results follow.

biological target: human ether-à-go-go-related gene (hERG) potassium channel (human, UniProt Q12809); assay: primary screen, population patch clamp on CHO cells stably expressing hERG
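Further: peak tail current of the secondary pulse compared with the same well before compound.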

Chain of human ether-à-go-go-related gene (hERG) potassium channel (Q12809 whole entry, looked up): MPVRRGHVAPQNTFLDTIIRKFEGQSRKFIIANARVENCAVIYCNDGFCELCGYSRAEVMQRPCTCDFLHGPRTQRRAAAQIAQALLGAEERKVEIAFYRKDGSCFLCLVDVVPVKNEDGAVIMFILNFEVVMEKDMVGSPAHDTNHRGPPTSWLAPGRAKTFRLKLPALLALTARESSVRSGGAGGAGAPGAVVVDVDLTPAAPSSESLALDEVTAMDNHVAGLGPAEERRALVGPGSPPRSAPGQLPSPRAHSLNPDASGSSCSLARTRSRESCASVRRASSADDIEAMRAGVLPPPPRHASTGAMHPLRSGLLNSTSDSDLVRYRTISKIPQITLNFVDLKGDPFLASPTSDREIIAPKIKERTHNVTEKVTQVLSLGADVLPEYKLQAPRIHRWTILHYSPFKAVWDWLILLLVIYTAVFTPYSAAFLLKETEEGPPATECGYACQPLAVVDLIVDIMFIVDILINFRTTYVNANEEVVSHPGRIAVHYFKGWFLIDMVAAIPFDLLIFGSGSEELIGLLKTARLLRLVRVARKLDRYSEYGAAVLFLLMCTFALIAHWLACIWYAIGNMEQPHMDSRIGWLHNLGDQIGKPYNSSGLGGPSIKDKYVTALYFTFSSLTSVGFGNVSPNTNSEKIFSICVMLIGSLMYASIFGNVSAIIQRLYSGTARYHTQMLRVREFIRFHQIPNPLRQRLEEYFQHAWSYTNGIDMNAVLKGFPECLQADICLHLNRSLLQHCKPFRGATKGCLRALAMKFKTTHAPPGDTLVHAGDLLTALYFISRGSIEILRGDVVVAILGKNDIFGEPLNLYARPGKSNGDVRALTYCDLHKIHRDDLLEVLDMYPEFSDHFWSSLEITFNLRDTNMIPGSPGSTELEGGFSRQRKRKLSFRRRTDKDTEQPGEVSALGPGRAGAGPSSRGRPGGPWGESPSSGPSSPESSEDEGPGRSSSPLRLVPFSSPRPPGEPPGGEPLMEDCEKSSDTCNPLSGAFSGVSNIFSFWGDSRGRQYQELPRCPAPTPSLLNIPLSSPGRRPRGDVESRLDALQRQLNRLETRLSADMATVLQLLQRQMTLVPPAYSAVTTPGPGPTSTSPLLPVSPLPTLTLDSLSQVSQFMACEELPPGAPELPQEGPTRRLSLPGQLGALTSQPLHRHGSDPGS

SMILES	hERG current change (%, negative = inhibition) at 10uM [%]
O=S(=O)(NC(=S)c1ccccc1)c1ccc(Cl)cc1	17.3
CCOC(=O)C(C)(C)N(Cc1cccc(C)c1)S(=O)(=O)c1ccc(Cl)c([N+](=O)[O-])c1	9.94
O=C(COc1ccc(Br)cc1)Nc1cc(S(=O)(=O)N2CCCCC2)ccc1N1CCCCC1	11.4
O=C(NCc1ccco1)NC12CC3CC(CC(C3)C1)C2	14.5
COc1ccc(C(=O)NC(=S)N2CCN(c3ccccc3OC)CC2)cc1OC	21.8
Cc1nnc(SCC(=O)N2c3ccccc3CC2C)[nH]c1=O (centres unmarked)	22.6
COc1ccc([N+](=O)[O-])cc1NC(=O)CSc1ncccn1	1.79
O=C(c1cccc(S(=O)(=O)N2CCOCC2)c1)N(CCc1ccccc1)Cc1ccccc1	-55.4
O=C(NC(Cc1ccccc1)C(=O)O)/C(=C\c1ccccc1)NC(=O)c1ccco1 (centres unmarked)	16.5
CC(C)[C@H](NC(=O)C1CCN(S(=O)(=O)c2ccccc2)CC1)C(=O)NCc1ccncc1	12.4
COC(=O)c1cc(C(=O)c2ccccc2)n2c(=O)/c(=C\N(C)C)sc12	2.57
C=CCSc1cc(C)nc2c(-c3ccc(Cl)cc3)c(C)nn12	-2.58
Cc1ccc(C(=O)COc2nc(C)nc3ccccc23)cc1	20.5
CCOC(=O)c1c(C)[nH]c(C(=O)CSc2nnnn2-c2ccccc2)c1C	11.8
COc1ccc(N2CCN(S(=O)(=O)c3cc(-c4cc(C)no4)ccc3C(C)C)CC2)cc1	4.79
CCN(CC)CCn1c2c(c(SCC(=O)Nc3nc(C)cs3)nc1=O)CCC2	-48.7
CC(C)(C)c1ccc(OCCC(=O)OCC(=O)NC2CCS(=O)(=O)C2)cc1 (centres unmarked)	-20.3
N#CCCCCn1c(-c2cncs2)nc2ccccc21	-40.9
O=c1ccc2cc(O)c(O)cc2o1	16.7
Cc1ccc(NC(=O)c2ccc(NCCc3ccccc3)c([N+](=O)[O-])c2)cc1F	5.24
O=C(CSc1nncn1-c1ccccc1F)NC1CCCCC1	6.01
O=C(COC(=O)C(Cc1ccccc1)NC(=O)c1ccccc1)c1ccccc1 (centres unmarked)	-1.84
CCC(SC1=N/C(=C/c2ccccc2)C(=O)N1c1ccccc1)C(=O)Nc1cc(C)on1 (centres unmarked)	5.9
